# Measured values: PMC5892938
# This is one part of the list. At the low end of the ranking the order means little.
# Molecular target: GST-SBP-SLBP (stem-loop binding protein) (UniProt Q14493)
# Experiment: targeted RNA Bind-n-Seq;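 note: DESeq read counts versus GST-SBP nonspecific binding control pulldown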
# Details: RBNS binding buffer: 25 mM Tris pH 7.5, 150 mM KCl, 3 mM MgCl2, 0.1% Tween, 0.5 mg/mL BSA, 1 mM DTT; 27 nM protein, 750 pM RNA pool; temperature not stated; high values mean tight binding
row,Sequence,binding signal (log2 fold change)
1,GGUCACGUCUCAAUCAACUCAUCGUCCAGGGAAAACCCUGGCAAAUUCAACAGCUCGCAGUCAAG,-0.235
2,GGUCACGUCUCAAUCAACUCAACUUCAGGAGUUUUCUCCUGCUAUCUCAACAGCUCGCAGUCAAG,-0.0268
3,GGUCACGUCUCAAUCAACUCUUUCCCAGGAGUUUACUCCUGCAAAUUCAACAGCUCGCAGUCAAG,-0.0762
4,GGUCACGUCUCAAUCAACUCUAUCUCCAGGGAAACCCCUGGCUUAUUCAACAGCUCGCAGUCAAG,-0.154
5,GGUCACGUCUCAAUCAACUCCCUAGAGGGGGGGAAAACCCCUUUACCCUCACCAUCAACAGCUCGCAGUCAAG,0.197
6,GGUCACGUCUCAAUCAACUCAACUUCCAGGGAAACCCCUGGUUAUCUCAACAGCUCGCAGUCAAG,-0.153
7,GGUCACGUCUCAAUCAACUCUUUUUCCAGGGAAACCCCUGGUUAAUUCAACAGCUCGCAGUCAAG,-0.228
8,GGUCACGUCUCAAUCAACUCCAUAGAGGGGGGGAAAACCCCUUUGCCCUCACACUCAACAGCUCGCAGUCAAG,0.119
9,GGUCACGUCUCAAUCAACUCAAUUUCAGGAGUUUUCUCCUGUUUUCUCAACAGCUCGCAGUCAAG,-0.024
10,GGUCACGUCUCAAUCAACUCUAACGAGGGGGGGAAAACCCCUUUGCCCUCAUUUUCAACAGCUCGCAGUCAAG,-0.243
11,GGUCACGUCUCAAUCAACUCAUCCCCCAGGGAAACCCCUGGUAAUUUCAACAGCUCGCAGUCAAG,-0.0379
12,GGUCACGUCUCAAUCAACUCUCAGGAGGGGGGGAAAACCCCUUUACCCUCAUCGUCAACAGCUCGCAGUCAAG,0.309
13,GGUCACGUCUCAAUCAACUCAGUUUCAGGAGUUUACUCCUGCAUAUUCAACAGCUCGCAGUCAAG,0.164
14,GGUCACGUCUCAAUCAACUCAAUCUCCAGGGAAAUCCCUGGUAUACUCAACAGCUCGCAGUCAAG,-0.0721
15,GGUCACGUCUCAAUCAACUCAUCAGAGGGGGGGAAAACCCCUUUACCCUCACUUUCAACAGCUCGCAGUCAAG,0.131
16,GGUCACGUCUCAAUCAACUCAUUUCCAGGAGUUUCCUCCUGCUAACUCAACAGCUCGCAGUCAAG,0.118
17,GGUCACGUCUCAAUCAACUCUACUCCAGGAGUUUCCUCCUGCUAUUUCAACAGCUCGCAGUCAAG,0.00662
18,GGUCACGUCUCAAUCAACUCAUCCCCCAGGGAAAUCCCUGGUAAACUCAACAGCUCGCAGUCAAG,0.154
19,GGUCACGUCUCAAUCAACUCAAUUCCAGGAGUUUCCUCCUGUAAAUUCAACAGCUCGCAGUCAAG,-0.0267
20,GGUCACGUCUCAAUCAACUCUAUUUCAGGAGUUUACUCCUGCAUACUCAACAGCUCGCAGUCAAG,0.0211
21,GGUCACGUCUCAAUCAACUCACACGAGGGGGGGAAAACCCCUUUGCCCUCAAAUUCAACAGCUCGCAGUCAAG,-0.15
22,GGUCACGUCUCAAUCAACUCAUUUUCAGGAGUUUUCUCCUGCAUAGUCAACAGCUCGCAGUCAAG,0.114
23,GGUCACGUCUCAAUCAACUCUACUCCAGGAGUUUCCUCCUGCUUAUUCAACAGCUCGCAGUCAAG,0.197
24,GGUCACGUCUCAAUCAACUCAUUUCCAGGAGUUUCCUCCUGUUUAGUCAACAGCUCGCAGUCAAG,0.219

row,Sequence,binding signal (log2 fold change)
1,GGUCACGUCUCAAUCAACUCAUCCCCCAGGGAAAUCCCUGGUAAUCUCAACAGCUCGCAGUCAAG,0.0778
2,GGUCACGUCUCAAUCAACUCUUACGAGGGGGGGAAAACCCCUUUACCCUCAAUCUCAACAGCUCGCAGUCAAG,-0.103
3,GGUCACGUCUCAAUCAACUCUAUCUCAGGAGUUUACUCCUGCAAACUCAACAGCUCGCAGUCAAG,0.174
4,GGUCACGUCUCAAUCAACUCUUCUCCAGGAGUUUCCUCCUGUUUUUUCAACAGCUCGCAGUCAAG,-0.0191
5,GGUCACGUCUCAAUCAACUCUCAGGAGGGGGGGAAAACCCCUUUACCCUCAACAUCAACAGCUCGCAGUCAAG,0.277
6,GGUCACGUCUCAAUCAACUCACUAGAGGGGGGGAAAACCCCUUUACCCUCCAUCUCAACAGCUCGCAGUCAAG,0.0387
7,GGUCACGUCUCAAUCAACUCAGUUUCCAGGGAAAUCCCUGGCAUUUUCAACAGCUCGCAGUCAAG,0.263
8,GGUCACGUCUCAAUCAACUCAUCCCCAGGAGUUUCCUCCUGCAUUCUCAACAGCUCGCAGUCAAG,0.291
9,GGUCACGUCUCAAUCAACUCCAUAGAGGGGGGGAAAACCCCUUUGCCCUCAAUCUCAACAGCUCGCAGUCAAG,-0.0126
10,GGUCACGUCUCAAUCAACUCACUCGAGGGGGGGAAAACCCCUUUACCCUCAACAUCAACAGCUCGCAGUCAAG,-0.167
11,GGUCACGUCUCAAUCAACUCAUCCCCCAGGGAAACCCCUGGCAUUCUCAACAGCUCGCAGUCAAG,-0.0449
12,GGUCACGUCUCAAUCAACUCAUCUCCAGGAGUUUACUCCUGCAAUCUCAACAGCUCGCAGUCAAG,0.127
13,GGUCACGUCUCAAUCAACUCAUCCUCAGGAGUUUUCUCCUGUUAAUUCAACAGCUCGCAGUCAAG,0.0626
14,GGUCACGUCUCAAUCAACUCAACUUCCAGGGAAACCCCUGGCAAAUUCAACAGCUCGCAGUCAAG,-0.114
15,GGUCACGUCUCAAUCAACUCCCAAGAGGGGGGGAAAACCCCUUUACCCUCCUACUCAACAGCUCGCAGUCAAG,0.169
16,GGUCACGUCUCAAUCAACUCAACGCCAGGAGUUUUCUCCUGUAUACUCAACAGCUCGCAGUCAAG,0.147
17,GGUCACGUCUCAAUCAACUCUAUCUCCAGGGAAAGCCCUGGUUUUUUCAACAGCUCGCAGUCAAG,-0.169
18,GGUCACGUCUCAAUCAACUCAUCGUCCAGGGAAAUCCCUGGCUUAUUCAACAGCUCGCAGUCAAG,-0.00186
19,GGUCACGUCUCAAUCAACUCAUUCGAGGGGGGGAAAACCCCUUUGCCCUCACUAUCAACAGCUCGCAGUCAAG,-0.0184
20,GGUCACGUCUCAAUCAACUCUAUCUCCAGGGAAAACCCUGGCUUAUUCAACAGCUCGCAGUCAAG,-0.0838
21,GGUCACGUCUCAAUCAACUCAUCUUCCAGGGAAACCCCUGGCAAAUUCAACAGCUCGCAGUCAAG,0.215
22,GGUCACGUCUCAAUCAACUCCCUCGAGGGGGGGAAAACCCCUUUACCCUCAAUCUCAACAGCUCGCAGUCAAG,-0.42
23,GGUCACGUCUCAAUCAACUCAUCCUCAGGAGUUUACUCCUGCUUACUCAACAGCUCGCAGUCAAG,0.315
